# In PubChem BioAssay AID1240 (Sanford-Burnham Center for Chemical Genomics, 2008):
# In all, about 50,000 compounds went through this assay and about 800 (1.6%) showed an effect of 50% or more. Some of the results follow.
# Target: Bcl-2-like protein 10 (Homo sapiens) (UniProt Q9HD36)
# Experiment: Phenotype converters, Bcl-B/TR3 peptide binding displacement, primary biochemical FP (AID 1240);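 note: 0% = Bcl-B with tracer peptide and DMSO and 100% = tracer peptide lacking Bcl-B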
# Settings: GST-Bcl-B / FITC-TR3 peptide fluorescence polarization; stronger effect = higher value; compound at 3.75 mg/L
# UniProt Q9HD36, sequence (Q9HD36 whole entry, looked up): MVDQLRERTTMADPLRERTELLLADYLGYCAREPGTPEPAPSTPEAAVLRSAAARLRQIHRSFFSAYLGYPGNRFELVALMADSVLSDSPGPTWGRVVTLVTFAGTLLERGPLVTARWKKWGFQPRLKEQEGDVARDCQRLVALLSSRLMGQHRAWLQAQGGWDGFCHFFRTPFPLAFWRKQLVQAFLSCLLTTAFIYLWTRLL
row,Compound,displacement [%]
1,Cc1ccc(C2=NC(=O)/C(=C/c3cc4c(cc3Br)OCO4)S2)cc1,16.4
2,O=C(Nc1cccnc1)c1ccccc1F,-2.4
3,O=C1CC(Nc2ccc(F)cc2)C(=O)N1c1ccccc1Cl (stereo not given),10.8
4,CCOc1ccc(C(=O)Nc2ccc(C(C)=O)cc2)cc1OCC,22.5
5,C/C(=C/C(=O)C(F)(F)C(F)F)NCCN/C(C)=C\C(=O)C(F)(F)C(F)F,-3.9
6,CCOc1ccc(S(=O)(=O)N(CC(=O)NC(C)(C)C)c2ccc(C)cc2)cc1,-6.4
7,CCOc1ccc(-n2nc3ccc(NC(=O)c4ccc([N+](=O)[O-])cc4Cl)cc3n2)cc1,-0.3
8,O=C(/C=C/c1ccc(F)cc1)n1cnc2ccccc21,-3.1
9,O=C(CSc1ncn[nH]1)c1cccc([N+](=O)[O-])c1,6.7
10,COc1ccc(N2C(=O)S/C(=C/c3ccc(OC)c(OC)c3)C2=O)cc1,15.9
11,COc1ccc2oc(=O)c(C(=O)Nc3ccc(Cl)c(Cl)c3)cc2c1,16.2
12,CC(C)(C)c1ccc(CNc2cc(N3CCOCC3)ccc2[N+](=O)[O-])cc1,10.8
13,O=C(O)c1cccc(N2C(=O)c3ccc(OCCOc4ccc5c(c4)C(=O)N(c4cccc(C(=O)O)c4)C5=O)cc3C2=O)c1,-0.6
14,CCOC(=O)C(CCCCCOc1cccc(Cl)c1)C(=O)OCC,-6
15,O=C(COc1cccc2ccccc12)NCc1ccccn1,9.3
16,Cc1ccc(OCCOCCOc2ccc(Br)cc2/C=N\n2cnnc2)cc1,-9.7
17,O=C(O)CCCC(=O)NCc1ccc(C(=O)O)cc1,-4.5
18,COc1ccc(CCNC(=O)c2cc3nc(-c4cccs4)cc(C(F)(F)F)n3n2)cc1OC,8.5
19,COc1cc(/C=N/n2cnnc2)cc(Br)c1OCc1ccc(Cl)cc1Cl,-11.4
20,Cc1ccc(OCC(=O)Nc2cc(C)cc(C)c2)cc1,4.9
21,O=[N+]([O-])c1cc(-n2ncnc2-c2ccc3c(c2)OCO3)ccc1F,16.6
22,CC(=O)C1=C(O)C(=O)N(CCN(C)C)C1c1ccccc1F (stereo not given),0.9
23,COC1=C(c2ccccc2)C(=O)c2ccccc2C1=O,-8.5
24,O=C(NCc1ccccc1)C(NC(=O)c1ccccc1)=C1CCCCC1,8.5
25,O=C(Nc1ccc(Br)cc1)c1cc2ccccc2o1,3.4
26,Cc1ccc(N2CCN(/N=C\c3ccccn3)CC2)cc1,-8.8
27,C/C(=N\OCC(=O)N/N=C/c1cc(Br)cc(Br)c1O)c1cccs1,1.7
28,COc1cccc2sc(NC(=O)/C=C/c3ccc([N+](=O)[O-])cc3)nc12,8.7
29,CC(C)NC(=O)/C(=C/c1ccccc1)c1ccccc1,9.6
30,O=C(CNc1ccc2ccccc2c1)N/N=C/c1ccc(Br)c([N+](=O)[O-])c1,-4.4
